Experimental data as given in PubChem BioAssay AID485281 (National Center for Advancing Translational Sciences (NCATS), 2010).
Hit rate of the full screen: of about 350,000 compounds, about 260 (0.074%) were called active. The shares of active, inactive and inconclusive entries below differ from those in the screen. Calls come from the whole dose curve; as a rule, active = well fitted inhibition curve with a large enough effect; inconclusive = small, poorly fitted or top-dose-only effect; inactive = no such curve, though single readings can be large or run the other way. A potency beside an inconclusive call is a rough fit, not a confirmed value.

These molecules were tested against Ferritin light chain (Equus caballus) (UniProt P02791) (assay: qHTS Assay for Identification of Novel General Anesthetics). Conditions: apoferritin/1-aminoanthracene competitive binding, fluorescence; series mostly up to 77.5 µM.
Summary of the method: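 Read-out: endpoint 1-AMA fluorescence, excitation 380 nm and emission 535 nm, after compounds sit 10 min at room temperature with 10 uM horse-spleen apoferritin in 50% saturated 1-AMA/PBS. Values come from four-parameter Hill fits.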
Note: nearly all actives have a fitted effect of over 20% in size.
Potency is the fitted concentration of half-maximal effect; tags give direction and shape of the fitted curve.

UniProt P02791, sequence (P02791 whole entry, looked up): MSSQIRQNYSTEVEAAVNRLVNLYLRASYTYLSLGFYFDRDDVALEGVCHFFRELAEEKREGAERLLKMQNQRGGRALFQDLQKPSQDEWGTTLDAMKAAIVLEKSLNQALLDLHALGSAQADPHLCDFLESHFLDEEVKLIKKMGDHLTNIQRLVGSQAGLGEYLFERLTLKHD

Row | Structure (SMILES) | Potency
1 | O=C(COc1ccccc1Cl)NC(=O)NC1CCCC1 | inconclusive: 50.1 µM [inhibitor, single point]
2 | O=C1CCCC2=C1C1O[C@](CCCCN3C(=O)c4ccccc4C3=O)(Cc3ccccc31)O2 | inconclusive: 4.47 µM [inhibitor, partial curve]
3 | CCCCC(=O)N(Cc1nc2sc(C)c(C)c2c(=O)[nH]1)C1CCCC1 | inconclusive: 39.8 µM [inhibitor, partial curve]
4 | Cc1cccc(NC(=O)NNC(=O)c2sccc2-n2cccc2)c1 | inconclusive: 35.5 µM [inhibitor, partial curve]
5 | Cc1ccc(NC(=O)C2CC(=O)NC(N3CCc4ccccc43)=N2)cc1 (stereo not given) | inconclusive: 50.1 µM [inhibitor, single point]
6 | CCOC(=O)c1cnc2c(Cl)c(Cl)ccc2c1NCCN1CCOCC1 | inactive
7 | COc1cc(NS(=O)(=O)c2c(C)oc3c(F)c(F)c(F)c(F)c23)cc(OC)c1OC | inactive
8 | CC1CC=C2C(C#N)=C(N)C(C#N)(C#N)C(c3cccs3)C2C1 (stereo not given) | inactive
9 | Cc1cc(NC(=O)c2cccs2)ncc1NC(=O)c1cccc(F)c1 | inconclusive: 12.6 µM [inhibitor, partial curve]
10 | O=C(N/N=C1\CC2CC=CC12)c1ccc(COc2ccccc2)cc1 (stereo not given) | inconclusive: 25.1 µM [inhibitor, partial curve]
11 | CCOc1ccc(-c2[nH]ncc2-c2ccc(OC)c(OC)c2)c(O)c1 | inconclusive: 11.2 µM [inhibitor, partial curve]
12 | Cc1oc2c(c1C(=O)N1CCC(C)CC1)C(=O)c1ccccc1C2=O | inactive
13 | Cc1cc2c(cc1C)CSC(c1ccccc1O)SC2 | inconclusive: 20 µM [inhibitor, partial curve]
14 | Cc1cc(C)c2cc(C#N)c(N3CCCC3)nc2c1 | inactive
15 | CCc1nnc(NC(=O)CCn2cnc3ccccc3c2=O)s1 | inactive
16 | CCn1cc(C(=O)N2CCN(c3cc(Cl)ccc3C)CC2)c(=O)c2cc(S(=O)(=O)N3CCOCC3)ccc21 | inconclusive: 7.94 µM [inhibitor, partial curve]
17 | Cc1snc(SCc2c(F)cccc2Cl)c1C#N | inconclusive: 50.1 µM [inhibitor, single point]
18 | CC(Nc1ccc(F)cc1F)C(=O)NC(=O)NC1CCCCC1 (stereo not given) | inconclusive: 35.5 µM [inhibitor, partial curve]
19 | CC(=O)c1cccc(Nc2ncnc3c2cnn3C)c1 | inactive
20 | CC1=NOC(=O)/C1=C/c1ccc(O)cc1 | inactive
21 | O=C(CCC1CCCCC1)Nc1ccc(C(=O)c2ccncc2)cc1 | inconclusive: 31.6 µM [inhibitor, partial curve]
22 | CC(/C=C1\SC(=S)N(CCC(=O)Nc2nc(C)cs2)C1=O)=C\c1ccccc1 | inactive
23 | CC1CCN(C(C(=O)Nc2ccc(C(C)C)cc2)c2ccc3c(c2)OCO3)CC1 (stereo not given) | inactive

Row | Structure (SMILES) | Potency
24 | CCOC(=O)CSc1nc2c(cnn2-c2ccc(F)cc2)c(=O)[nH]1 | inactive
25 | COc1ccccc1OCCCSc1nc(-c2ccc(C(C)(C)C)cc2)nc2cc(=O)[nH]n12 | inconclusive: 20 µM [inhibitor, partial curve]
26 | COc1ccc2[nH]c(=O)c(CN(Cc3cccs3)S(=O)(=O)c3c(C)ccc4nsnc34)cc2c1 | inactive
27 | COc1ccc(CNC(=O)Cn2ncc3c4ccccc4n(Cc4cccc(Cl)c4)c3c2=O)cc1 | inactive
28 | CC(C)CC(COCc1cccc(Cl)c1)N1CCN(C(=O)c2cccc(C(F)(F)F)c2)CCC1=O (stereo not given) | inconclusive: 11.2 µM [inhibitor, single point]
29 | Cc1c2cnn(CC(=O)N3CCCCC3)c(=O)c2c(C)n1Cc1ccc(F)cc1 | inconclusive: 6.31 µM [inhibitor, full curve]
30 | N/C(=N\OC(=O)COc1ccc2ccccc2c1)c1ccncc1 | inconclusive: 31.6 µM [inhibitor, partial curve]
31 | CCOc1ccc(C(c2c(O)cc(C)n(CCOC)c2=O)N2CCN(c3ccccc3)CC2)cc1 (stereo not given) | inactive
32 | Cc1ccc(N(Cc2ccccc2O)C(=O)c2ccccc2F)cc1 | inconclusive: 50.1 µM [inhibitor, single point]
33 | Cc1ccc(Cl)cc1NS(=O)(=O)c1ccc2oc(=O)c3ncn(C)c3c2c1 | inconclusive: 50.1 µM [inhibitor, single point]
34 | NS(=O)(=O)OCCCc1ccc(C(F)(F)F)cc1 | inconclusive: 50.1 µM [inhibitor, single point]
35 | CCc1nc(Nc2ccccc2)c2nnn(Cc3ccccc3)c2n1 | inconclusive: 11.2 µM [inhibitor, partial curve]
36 | Cc1ccc(CN=c2c([N+](=O)[O-])nn(-c3ccc4c(c3)OCCO4)n2O)cc1 | inconclusive: 28.2 µM [inhibitor, single point]
37 | NS(=O)(=O)c1ccc(NC(=O)COC(=O)COc2cccc(C(F)(F)F)c2)cc1 | inconclusive: 50.1 µM [inhibitor, single point]
38 | COc1cccc(OCc2nnc(SCC(=O)OC3CCCCC3)n2C)c1 | inconclusive: 25.1 µM [inhibitor, partial curve]
39 | COc1cccc(CN(C)CC(=O)NNC(=O)c2ccc(Cl)cc2)c1 | inconclusive: 39.8 µM [inhibitor, partial curve]
40 | Cc1ccc(C)c(NC(=O)CCC(=O)N/N=C/c2cc([N+](=O)[O-])ccc2O)c1 | inconclusive: 11.2 µM [inhibitor, partial curve]
41 | O=C(Nc1ccc(S(=O)(=O)Nc2ccccc2)cc1)C1COc2ccccc2O1 (stereo not given) | inconclusive: 35.5 µM [inhibitor, single point]
42 | COc1ccc(C(=O)Cc2nnc(C)s2)cc1 | inactive
43 | N/N=C(\c1ccccc1)c1cc(Br)ccc1N | inconclusive: 56.2 µM [inhibitor, single point]
44 | O=C(NCc1ccco1)[C@@H]1CSC2c3ccccc3C(=O)N21 (stereo not given in full) | inconclusive: 28.2 µM [inhibitor, partial curve]
45 | Cc1ccc(-c2nn(CC(=O)Nc3ccc4c(c3)nc3n4CCOC3)c(=O)c3ccccc23)cc1 | inconclusive: 6.31 µM [inhibitor, full curve]
